Reference: the supplement of paper PMC4967469
pIC50: −log10 of the molar value. By IC50 is meant the dose at which the fit gives 50% viability; fits outside the tested doses are given as limits. AUC, from the same fit, is the share of area under the viability curve across the 256-fold dose range; values near 1 show little effect. For some of these results: Where the top dose is marked as inferred, it was derived from the fitted curves, not read from the paper. For some of these results: Where an entry number is given, a second screen of the drug exists; the two often differ.

Legend:
Test in all cases: Viability of human cancer cell lines after 72 h of drug (GDSC screen)
[1] = compound: CC1(C)CNc2cc(NC(=O)c3cccnc3NCc3ccncc3)ccc21 [AMG-706]; details: top dose 2 µM; top dose inferred
Description: (§1)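 Human cancer cell lines in 384-well plates, medium with 10% serum, drug for 72 h over a 256-fold dose range (nine 2-fold or five 4-fold steps up to the top dose). Adherent lines were fixed and stained with the nucleic acid dye Syto60, suspension lines read with resazurin; signal relative to control wells, capped at 0 and 100%. One two-parameter sigmoid per drug and line, fitted in a mixed model over all curves with the slope shared within a line.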

[2] = compound: CC1=C2C[C@H]3[C@@H](CC=C4C[C@@H](O)CC[C@@]43C)[C@@H]2CC[C@]12O[C@@H]1C[C@H](C)CN[C@H]1[C@H]2C [Cyclopamine]; details: top dose 16 µM; top dose inferred
Description: as §1

[3] = compound: O=C(/C=C/c1cccc(S(=O)(=O)Nc2ccccc2)c1)NO [Belinostat]; details: top dose 20 µM; top dose inferred
Description: as §1

[4] = compound: COCC[n+]1c2c(n(Cc3cnccn3)c1C)C(=O)c1ccccc1C2=O [YM155]; details: top dose 5.12 µM
Description: as §1

[5] = compound: CCOc1nc(NC(=O)Cc2cc(OC)ccc2OC)cc(N)c1C#N [JNK Inhibitor VIII]; details: top dose 10 µM; top dose inferred
Description: as §1

[6] = compound: Cc1[nH]c(/C=C2\C(=O)Nc3ccc(S(=O)(=O)Cc4c(Cl)cccc4Cl)cc32)c(C)c1C(=O)N1CCC[C@@H]1CN1CCCC1 [PHA-665752]; details: top dose 2 µM
Description: as §1

[7] = compound: Cc1sc2c(c1C)C(c1ccc(Cl)cc1)=N[C@@H](CC(=O)OC(C)(C)C)c1nnc(C)n1-2 [JQ1]
Description: as §1

[8] = compound: CC(=O)O[C@@]12CO[C@@H]1C[C@H](O)[C@@]1(C)C(=O)[C@H](O)C3=C(C)[C@@H](OC(=O)[C@H](O)[C@@H](NC(=O)OC(C)(C)C)c4ccccc4)C[C@@](O)([C@@H](OC(=O)c4ccccc4)[C@H]21)C3(C)C [Docetaxel]; details: top dose 0.0125 µM
Description: as §1

[9] = compound: C[C@]1(O)C[C@@H](c2nc(-c3ccc4ccc(-c5ccccc5)nc4c3)c3c(N)nccn32)C1 [OSI-906]; details: top dose 2.56 µM; top dose inferred
Description: as §1

[10] = compound: OCCCNc1cc(-c2ccnc(Nc3cccc(Cl)c3)n2)ccn1 [CGP-60474]; details: top dose 0.256 µM; top dose inferred
Description: as §1

[11] = compound: Cc1ccc(C(=O)N(CCCN)[C@@H](c2nc3cc(Cl)ccc3c(=O)n2Cc2ccccc2)C(C)C)cc1 [SB-715992]; details: top dose 0.128 µM; top dose inferred
Description: as §1

[12] = compound: COC(=O)[C@H](CCSC)NC(=O)c1ccc(NC[C@@H](N)CS)cc1-c1ccccc1 [FTI-277]; details: top dose 1.024 µM; top dose inferred
Description: as §1

[13] = compound: CN1CCN(c2ccc([N+](=O)[O-])c3no[n+]([O-])c23)CC1 [NSC-207895]; details: top dose 20 µM; top dose inferred
Description: as §1

[14] = compound: c1ccc2c(CCNc3ccc(Nc4ccncc4)cc3)c[nH]c2c1 [JNJ-26854165]; details: top dose 10 µM
Description: as §1

[15] = top dose 1 µM, screen: GDSC drug entry 1218, top dose inferred
[16] = top dose 2.56 µM, screen: GDSC drug entry 163

Cell Line	AUC [1]	pIC50 [1]	AUC [2]	pIC50 [2]	AUC [3]	pIC50 [3]	AUC [4]	pIC50 [4]	AUC [5]	pIC50 [5]	AUC [6]	pIC50 [6]	AUC [7, 15]	pIC50 [7, 15]	AUC [7, 16]	pIC50 [7, 16]	AUC [8]	pIC50 [8]	AUC [9]	pIC50 [9]	AUC [10]	pIC50 [10]	AUC [11]	pIC50 [11]	AUC [12]	pIC50 [12]	AUC [13]	pIC50 [13]	AUC [14]	pIC50 [14]
DB (B-cell lymphoma, suspension)	0.926	< 5.70	0.978	< 4.80	0.13	> 7.11	0.03	> 7.70	0.906	< 5.00	0.98	< 5.70	0.796	6.27	0.78	5.92	0.745	8.36	0.982	< 5.59	0.694	7.22	0.73	7.40	0.979	< 5.99	0.848	4.75	–	–
Daudi (Burkitt lymphoma, suspension)	0.988	< 5.70	0.917	< 4.80	0.254	6.56	0.018	> 7.70	0.986	< 5.00	0.99	< 5.70	–	–	–	–	0.99	< 7.90	0.979	< 5.59	0.642	7.43	0.876	7.00	0.99	< 5.99	0.669	5.46	0.881	5.09
EHEB (lymphoid neoplasm, suspension)	0.973	< 5.70	–	–	–	–	–	–	0.978	< 5.00	0.972	< 5.70	0.97	< 6.00	0.811	5.65	0.93	< 7.90	0.978	< 5.59	0.734	6.99	–	–	0.968	< 5.99	–	–	0.776	5.22
ES4 (Ewing sarcoma, adherent)	0.973	< 5.70	0.96	< 4.80	0.665	5.41	0.13	> 7.70	0.962	< 5.00	0.966	< 5.70	0.978	< 6.00	0.84	5.67	–	–	0.665	6.30	0.613	7.46	0.915	< 6.89	0.973	< 5.99	0.917	< 4.70	0.869	< 5.00
KCL-22 (chronic myeloid leukaemia, suspension)	0.991	< 5.70	0.935	< 4.80	0.318	6.37	0.051	> 7.70	0.991	< 5.00	0.99	< 5.70	0.983	< 6.00	0.711	6.25	0.908	7.91	0.991	< 5.59	0.728	7.20	0.582	7.89	0.988	< 5.99	0.969	< 4.70	–	–
